# Data from the supplement of paper PMC8728848.
# The other results are listed elsewhere or left out.
# Columns and labels:
# Assay in all cases: glycan array binding signal (z-score within array); higher = stronger binding
# Conditions in all cases: glycan notation: IUPAC condensed, linker removed
# [1] = biological target: Neu5Ac(a2-6)Gal(b1-4)GlcNAc(b1-2)Man(a1-6)[Man(a1-3)]Man(b1-4)GlcNAc(b1-4)GlcNAc
# Method in brief: (§1)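 Negative Z-scores can be read as non-binding. The Z-score is calculated within each array and then averaged across arrays of one protein sequence at different concentrations or buffers and across linkers. Arrays, 3228 in all, were curated from the Consortium for Functional Glycomics database and kept only where the protein sequence was available.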
# [2] = biological target: Neu5Ac(a2-6)Gal(b1-4)GlcNAc(b1-2)[Neu5Ac(a2-6)Gal(b1-4)GlcNAc(b1-4)]Man(a1-3)[GlcNAc(b1-4)][Neu5Ac(a2-6)Gal(b1-4)GlcNAc(b1-2)[Neu5Ac(a2-6)Gal(b1-4)GlcNAc(b1-6)]Man(a1-6)]Man(b1-4)GlcNAc(b1-4)GlcNAc
# Method in brief: as §1
# [3] = biological target: Neu5Ac(a2-6)Gal(b1-4)GlcNAc(b1-2)[Neu5Ac(a2-6)Gal(b1-4)GlcNAc(b1-4)]Man(a1-3)[GlcNAc(b1-4)][Neu5Ac(a2-6)Gal(b1-4)GlcNAc(b1-4)Man(a1-6)]Man(b1-4)GlcNAc(b1-4)GlcNAc
# Method in brief: as §1
# [4] = biological target: Neu5Ac(a2-6)Gal(b1-4)GlcNAc(b1-2)[Neu5Ac(a2-6)Gal(b1-4)GlcNAc(b1-6)]Man(a1-6)[Neu5Ac(a2-6)Gal(b1-4)GlcNAc(b1-2)Man(a1-3)][GlcNAc(b1-4)]Man(b1-4)GlcNAc(b1-4)GlcNAc
# Method in brief: as §1
# [5] = biological target: Neu5Ac(a2-6)Gal(b1-4)GlcNAc(b1-3)Gal(b1-3)GlcNAc
# Method in brief: as §1
# [6] = biological target: Neu5Ac(a2-6)Gal(b1-4)GlcNAc(b1-3)Gal(b1-4)GlcNAc
# Method in brief: as §1
# [7] = biological target: Neu5Ac(a2-6)Gal(b1-4)GlcNAc(b1-3)Gal(b1-4)GlcNAc(b1-2)Man(a1-3)[Neu5Ac(a2-6)Gal(b1-4)GlcNAc(b1-3)Gal(b1-4)GlcNAc(b1-2)Man(a1-6)]GalNAc
# Method in brief: as §1
# [8] = biological target: Neu5Ac(a2-6)Gal(b1-4)GlcNAc(b1-3)Gal(b1-4)GlcNAc(b1-3)Gal(b1-4)GlcNAc
# Method in brief: as §1
# [9] = biological target: Neu5Ac(a2-6)Gal(b1-4)GlcNAc(b1-3)Gal(b1-4)GlcNAc(b1-3)Gal(b1-4)GlcNAc(b1-2)Man(a1-3)[Neu5Ac(a2-6)Gal(b1-4)GlcNAc(b1-3)Gal(b1-4)GlcNAc(b1-3)Gal(b1-4)GlcNAc(b1-2)Man(a1-6)]GalNAc
# Method in brief: as §1
# [10] = biological target: Neu5Ac(a2-6)Gal(b1-4)GlcNAc(b1-3)Gal(b1-4)GlcNAc(b1-3)GalNAc
# Method in brief: as §1
# [11] = biological target: Neu5Ac(a2-6)Gal(b1-4)GlcNAc(b1-3)Gal(b1-4)GlcNAc(b1-3)[Neu5Ac(a2-6)Gal(b1-4)GlcNAc(b1-3)Gal(b1-4)GlcNAc(b1-6)]GalNAc
# Method in brief: as §1
# [12] = biological target: Neu5Ac(a2-6)Gal(b1-4)GlcNAc(b1-3)Gal(b1-4)GlcNAc(b1-6)[Gal(b1-3)]GalNAc
# Method in brief: as §1
# [13] = biological target: Neu5Ac(a2-6)Gal(b1-4)GlcNAc(b1-3)Gal(b1-4)[Fuc(a1-3)]GlcNAc(b1-3)Gal(b1-4)[Fuc(a1-3)]GlcNAc
# Method in brief: as §1
# [14] = biological target: Neu5Ac(a2-6)Gal(b1-4)GlcNAc(b1-3)GalNAc
# Method in brief: as §1
# [15] = biological target: Neu5Ac(a2-6)Gal(b1-4)GlcNAc(b1-3)[Neu5Ac(a2-6)Gal(b1-4)GlcNAc(b1-6)]GalNAc
# Method in brief: as §1
# [16] = biological target: Neu5Ac(a2-6)Gal(b1-4)GlcNAc(b1-6)GalNAc
# Method in brief: as §1
# [17] = biological target: Neu5Ac(a2-6)Gal(b1-4)GlcNAc(b1-6)[Gal(b1-3)GlcNAc(b1-3)]Gal(b1-4)Glc
# Method in brief: as §1
# [18] = biological target: Neu5Ac(a2-6)Gal(b1-4)GlcNAc(b1-6)[Gal(b1-3)]GalNAc
# Method in brief: as §1
# [19] = biological target: Neu5Ac(a2-6)Gal(b1-4)GlcNAc6S
# Method in brief: as §1
# [20] = biological target: Neu5Ac(a2-6)GalNAc
# Method in brief: as §1
# [21] = biological target: Neu5Ac(a2-6)GalNAc(b1-4)GlcNAc
# Method in brief: as §1
# [22] = biological target: Neu5Ac(a2-6)GalNAc(b1-4)GlcNAc6S
# Method in brief: as §1
# [23] = biological target: Neu5Ac(a2-6)GlcNAc(b1-4)GlcNAc
# Method in brief: as §1
# [24] = biological target: Neu5Ac(a2-6)GlcNAc(b1-4)GlcNAc(b1-4)GlcNAc
# Method in brief: as §1
# [25] = biological target: Neu5Ac(a2-8)Neu5Ac
# Method in brief: as §1
# [26] = biological target: Neu5Ac(a2-8)Neu5Ac(a2-3)Gal(b1-3)GalNAc(b1-4)[Neu5Ac(a2-3)]Gal(b1-4)Glc
# Method in brief: as §1
# [27] = biological target: Neu5Ac(a2-8)Neu5Ac(a2-3)Gal(b1-3)GalNAc(b1-4)[Neu5Ac(a2-8)Neu5Ac(a2-3)]Gal(b1-4)Glc
# Method in brief: as §1
# [28] = biological target: Neu5Ac(a2-8)Neu5Ac(a2-3)Gal(b1-4)Glc
# Method in brief: as §1
# [29] = biological target: Neu5Ac(a2-8)Neu5Ac(a2-3)Gal(b1-4)GlcNAc
# Method in brief: as §1
# [30] = biological target: Neu5Ac(a2-8)Neu5Ac(a2-3)[Gal(b1-3)GalNAc(b1-4)]Gal(b1-4)Glc
# Method in brief: as §1
# [31] = biological target: Neu5Ac(a2-8)Neu5Ac(a2-3)[GalNAc(b1-4)]Gal(b1-4)Glc
# Method in brief: as §1
# [32] = biological target: Neu5Ac(a2-8)Neu5Ac(a2-8)Neu5Ac
# Method in brief: as §1
# [33] = biological target: Neu5Ac(a2-8)Neu5Ac(a2-8)Neu5Ac(a2-3)Gal(b1-4)Glc
# Method in brief: as §1
# [34] = biological target: Neu5Ac(a2-8)Neu5Ac(a2-8)Neu5Ac(a2-3)[Gal(b1-3)GalNAc(b1-4)]Gal(b1-4)Glc
# Method in brief: as §1
# [35] = biological target: Neu5Ac(a2-8)Neu5Ac(a2-8)Neu5Ac(a2-3)[GalNAc(b1-4)]Gal(b1-4)Glc
# Method in brief: as §1
# [36] = biological target: Neu5Ac(a2-8)Neu5Ac(a2-8)Neu5Ac(a2-8)Neu5Ac(a2-3)[GalNAc(b1-4)]Gal(b1-4)Glc
# Method in brief: as §1
# [37] = biological target: Neu5Ac(a2-8)Neu5Gc(a2-3)Gal(b1-4)GlcNAc
# Method in brief: as §1
# [38] = biological target: Neu5Ac(b2-6)Gal(b1-4)GlcNAc
# Method in brief: as §1
# [39] = biological target: Neu5Ac(b2-6)GalNAc
# Method in brief: as §1
# [40] = biological target: Neu5Ac9Ac(a2-3)Gal(b1-3)GlcNAc
# Method in brief: as §1
# [41] = biological target: Neu5Ac9Ac(a2-3)Gal(b1-4)GlcNAc
# Method in brief: as §1
# [42] = biological target: Neu5Ac9Ac(a2-6)Gal(b1-4)GlcNAc
# Method in brief: as §1
# [43] = biological target: Neu5Gc(a2-3)Gal(b1-3)GlcNAc
# Method in brief: as §1
# [44] = biological target: Neu5Gc(a2-3)Gal(b1-3)[Fuc(a1-4)]GlcNAc
# Method in brief: as §1
# [45] = biological target: Neu5Gc(a2-3)Gal(b1-4)Glc
# Method in brief: as §1
# [46] = biological target: Neu5Gc(a2-3)Gal(b1-4)GlcNAc
# Method in brief: as §1
# [47] = biological target: Neu5Gc(a2-3)Gal(b1-4)GlcNAc(b1-3)Gal(b1-4)GlcNAc(b1-2)Man(a1-3)[Neu5Gc(a2-3)Gal(b1-4)GlcNAc(b1-3)Gal(b1-4)GlcNAc(b1-2)Man(a1-6)]Man(b1-4)GlcNAc(b1-4)GlcNAc
# Method in brief: as §1
# [48] = biological target: Neu5Gc(a2-3)Gal(b1-4)[Fuc(a1-3)]GlcNAc
# Method in brief: as §1
# [49] = biological target: Neu5Gc(a2-6)Gal(b1-4)GlcNAc
# Method in brief: as §1
# [50] = biological target: Neu5Gc(a2-6)GalNAc
# Method in brief: as §1
# [51] = biological target: Neu5Gc(a2-8)Neu5Ac(a2-3)Gal(b1-4)GlcNAc
# Method in brief: as §1
# [52] = biological target: Neu5Gc(a2-8)Neu5Gc(a2-3)Gal(b1-4)GlcNAc
# Method in brief: as §1
# [53] = biological target: Neu5Gc(a2-8)Neu5Gc(a2-3)Gal(b1-4)GlcNAc(b1-3)Gal(b1-4)GlcNAc
# Method in brief: as §1
# [54] = biological target: Neu5Gc(a2-8)Neu5Gc(a2-6)Gal(b1-4)GlcNAc
# Method in brief: as §1
# [55] = biological target: Neu5Gc(b2-6)Gal(b1-4)GlcNAc
# Method in brief: as §1
binder,measurement,setting,value
MGL6A (Homo sapiens) (protein) MTRTYENFQYLENKVKVQGFKNGPLPLQSLLQRLCSGPCHLLLSLGLGLLLLVIICVVGFQNSKFQRDLVTLRTDFSNFTSNTVAEIQALTSQGSSLEETIASLKAEVEGFKQERQAVHSEMLLRVQQLVQDLKKLTCQVATLNNNGEEASTEGTCCPVNWVEHQDSCYWFSHSGMSWAEAEKYCQLKNAHLVVINSREEQNFVQKYLGSAYTWMGLSDPEGAWKWVDGTDYATGFQNWKPGQPDDWQGHGLGGGEDCAHFHPDGRWNDDVCQRPYHWVCEAGLGQTSQESH,glycan array binding signal (z-score),[1],-0.19
same,glycan array binding signal (z-score),[2],-0.775
same,glycan array binding signal (z-score),[3],-0.845
same,glycan array binding signal (z-score),[4],-0.241
same,glycan array binding signal (z-score),[5],-0.196
same,glycan array binding signal (z-score),[6],-0.225
same,glycan array binding signal (z-score),[7],-0.183
same,glycan array binding signal (z-score),[8],-0.175
same,glycan array binding signal (z-score),[9],-0.152
same,glycan array binding signal (z-score),[10],-0.891
same,glycan array binding signal (z-score),[11],-0.22
same,glycan array binding signal (z-score),[12],-0.252
same,glycan array binding signal (z-score),[13],-0.295
same,glycan array binding signal (z-score),[14],-0.189
same,glycan array binding signal (z-score),[15],-0.214
same,glycan array binding signal (z-score),[16],-0.237
same,glycan array binding signal (z-score),[17],-0.27
same,glycan array binding signal (z-score),[18],-0.264
same,glycan array binding signal (z-score),[19],-0.292
same,glycan array binding signal (z-score),[20],1.56
same,glycan array binding signal (z-score),[21],1.56
same,glycan array binding signal (z-score),[22],0.124
same,glycan array binding signal (z-score),[23],-0.154
same,glycan array binding signal (z-score),[24],-0.189
same,glycan array binding signal (z-score),[25],-0.274
same,glycan array binding signal (z-score),[26],-0.254
same,glycan array binding signal (z-score),[27],-0.251
same,glycan array binding signal (z-score),[28],-0.293
same,glycan array binding signal (z-score),[29],-0.265
same,glycan array binding signal (z-score),[30],0.481
same,glycan array binding signal (z-score),[31],2.18
same,glycan array binding signal (z-score),[32],-0.282
same,glycan array binding signal (z-score),[33],-0.295
same,glycan array binding signal (z-score),[34],-0.251
same,glycan array binding signal (z-score),[35],2.87
same,glycan array binding signal (z-score),[36],3.22
same,glycan array binding signal (z-score),[37],-0.271
same,glycan array binding signal (z-score),[38],-0.277
same,glycan array binding signal (z-score),[39],-0.24
same,glycan array binding signal (z-score),[40],-0.341
same,glycan array binding signal (z-score),[41],-0.292
same,glycan array binding signal (z-score),[42],-0.277
same,glycan array binding signal (z-score),[43],-0.256
same,glycan array binding signal (z-score),[44],-0.288
same,glycan array binding signal (z-score),[45],-0.288
same,glycan array binding signal (z-score),[46],-0.228
same,glycan array binding signal (z-score),[47],-0.258
same,glycan array binding signal (z-score),[48],-0.224
same,glycan array binding signal (z-score),[49],-0.101
same,glycan array binding signal (z-score),[50],0.148
same,glycan array binding signal (z-score),[51],-0.273
same,glycan array binding signal (z-score),[52],-0.266
same,glycan array binding signal (z-score),[53],-0.26
same,glycan array binding signal (z-score),[54],-0.245
same,glycan array binding signal (z-score),[55],-0.274
